Target: T1, PID-130 (trispecific Her2/CD3/PD-1 MIAC; Blinatumomab_CD3 aglycosylated IgG1 with Trastuzumab scFv at the …)
T1 construct: also called α-Her2/α-CD3/α-PD-1 MIAC; PID130 [Her2/CD3/PD-1]
Assay: ForteBio Octet BLI; antigen-Fc on Protein A sensor, 100 nM construct
Protocol: Antigen binding of MIAC constructs were analyzed using ForteBio Octet. […] All antigens were reconstituted in PBS at the final concentration of 0.25 ug/ul. […] Association proceeded by dipping sensors in 100 nM MIAC constructs for 5 minutes and disassociation occurred in blank kinetics buffer for 5 minutes. For CD3 epsilon binding, antigen was immobilized on Ni-NTA sensors; association was performed in 50 nM MIAC constructs. Binding data were analyzed using ForteBio Data Analysis 9.0 software.

Kd: 0.37 nM
B1: Recombinant human PD-1 Fc fusion protein (Sino Biological) (Fc fusion)
chain: not shown
notes: not shown: Fc part of the bought fusion protein

Source: patent US20180318417A1 (COMPASS THERAPEUTICS, published 2018)
